From the supplement of paper PMC12217912
This is one part of the list. Sequences were assembled here from the parent chain. Inactive controls read about 0.05.

B1: TEV protease; numbered along this chain (parent)
chain: MGESLFKGPRDYNPISSSICHLTNESDGHTTSLYGIGFGPFIITNKHLFRRNNGTLVVQSLHGVFKVKDTTTLQQHLVDGRDMIIIRMPKDFPPFPQKLKFREPQREERICLVTTNFQTKSMSSMVSDTSCTFPSGDGIFWKHWIQTKDGQCGSPLVSTRDGFIVGIHSASNFTNTNNYFTSVPKNFMELLTNQEAQQWVSGWRLNADSVLWGGHKVFMVKPEEPFQPVKEATQL

Variants of: B1
Test: raw area under fraction-flipped curve 0-4 h after induction (AUC4h, not background-subtracted), DNA-recorder readout of cleavage of the substrate (dimensionless); higher = more cleavage of the substrate by the protease variant
Details: temperature: 34 °C; time window: 0-4 h after rhamnose induction
Method: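 In vivo DNA recorder in E. coli TOP10(DE3) ΔrhaA at 34 °C. Each TEVp single-site mutant (parent TEVp 0) is paired with a single-site variant of the 7-mer TEVs (canonical ENLYFQ|S). The substrate sits between flexible linkers in a Bxb1-sfGFP-TEVs-SsrA fusion, so cleavage stabilises Bxb1 and speeds flipping of a recombination array, read by NGS. The value is the raw area under the fraction-flipped curve over 0-4 h after rhamnose induction (AUC4h), with ≥20 reads per time point. It is not background-subtracted; inactive controls average about 0.047.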
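Further: Bxb1 expression induced with 0.2% (w/v) L-rhamnose at OD600 near 0.5, cultures sampled hourly, flipped fraction per protease–substrate barcode pair counted by paired-end Illumina sequencing.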

Row | Variant | area with substrate ENAYFQS | area with substrate ENCYFQS | area with substrate ENDYFQS | area with substrate ENEYFQS | area with substrate ENFYFQS | area with substrate ENGYFQS | area with substrate ENMYFQS | area with substrate ENNYFQS | area with substrate ENPYFQS | area with substrate ENQYFQS | area with substrate ENRYFQS | area with substrate ENSYFQS | area with substrate ENVYFQS | area with substrate ENWYFQS | area with substrate ENYYFQS | area with substrate ENKYFQS | area with substrate ENTYFQS | area with substrate ENIYFQS | area with substrate ENHYFQS
1 | M83W | 0.0433 | 0.0659 | 0.0617 | 0.0708 | 0.0669 | 0.0794 | 0.0526 | 0.0498 | 0.0426 | 0.0568 | 0.054 | 0.0567 | 0.0444 | 0.065 | 0.062 |  |  |  | 
2 | F117H | 0.0647 | 0.0642 | 0.0641 | 0.0624 | 0.088 | 0.0537 | 0.0783 | 0.0633 | 0.0534 | 0.0658 | 0.0524 | 0.0727 | 0.0824 |  |  | 0.0749 | 0.0885 |  | 
3 | E107W | 0.0651 |  | 0.0617 | 0.06 | 0.0589 | 0.071 |  | 0.0671 | 0.0745 | 0.079 |  | 0.0545 | 0.0551 |  |  | 0.0776 | 0.0584 | 0.111 | 
4 | V126N | 0.0618 | 0.0624 | 0.0685 | 0.0701 |  | 0.0604 |  | 0.0454 | 0.0722 | 0.065 | 0.0401 | 0.0646 | 0.0873 | 0.0725 | 0.0651 | 0.0563 | 0.0508 | 0.117 | 0.0676
5 | V126M | 0.0647 | 0.0644 | 0.0556 | 0.0631 | 0.0554 | 0.0763 | 0.0781 | 0.0602 | 0.0619 | 0.0422 |  | 0.0529 | 0.0635 | 0.06 |  |  | 0.0613 |  | 0.0559
6 | V126W | 0.0591 | 0.0726 | 0.0433 | 0.0607 | 0.0708 | 0.0514 | 0.0815 | 0.0594 | 0.0367 | 0.0606 | 0.0577 | 0.065 | 0.0792 | 0.0574 |  | 0.0589 | 0.0657 |  | 0.0665
7 | S127D | 0.0552 | 0.0654 |  | 0.0567 |  | 0.0662 | 0.0658 | 0.0691 | 0.0549 |  |  | 0.0621 | 0.0702 |  |  | 0.0546 |  | 0.113 | 
8 | D91H | 0.0611 | 0.0704 | 0.0604 | 0.05 | 0.0588 | 0.0628 | 0.0861 | 0.0677 | 0.0624 | 0.0588 | 0.0501 | 0.0638 |  | 0.039 |  |  | 0.0598 | 0.157 | 0.0762
9 | D91A | 0.0623 | 0.074 | 0.0619 | 0.0367 |  | 0.0489 |  |  | 0.0655 | 0.0687 |  | 0.0121 |  |  | 0.0394 | 0.0746 | 0.0577 |  | 
10 | D91P | 0.0507 | 0.0596 |  | 0.0491 | 0.0633 |  |  |  |  | 0.0437 | 0.0508 | 0.0857 |  |  |  | 0.0641 | 0.0641 |  | 0.048
11 | I85P | 0.0431 | 0.0382 | 0.04 | 0.0468 |  | 0.0238 |  | 0.0479 | 0.0451 |  | 0.0248 | 0.0391 | 0.0414 |  | 0.0521 | 0.0389 | 0.0412 |  | 0.0241
12 | P94I | 0.0333 | 0.0527 |  | 0.0368 | 0.0778 | 0.0969 |  | 0.0491 | 0.0462 | 0.0616 | 0.0706 | 0.0695 |  | 0.0497 |  | 0.0594 |  |  | 
